Measurements from PubChem BioAssay AID651567 (National Center for Advancing Translational Sciences (NCATS), 2012).
Hit rate of the full screen: of about 1,200 compounds, about 10 (0.8%) were called active. Not shown: some 4% with an inconclusive outcome. Calls follow the shape of the dose curve; as a rule, active = well fitted inhibition curve with a large enough effect; inconclusive = small, poorly fitted or top-dose-only effect; inactive = no such curve, though single readings can be large or run the other way. The list shows a part of the results.

experiment: qHTS Assay to Find Inhibitors of Chronic Active B-Cell Receptor Signaling: Hit Validation in OCI-Ly3 Assay; conditions: OCI-Ly3 IkB-luciferase reporter, Chroma-Glo luminescence, 4 h; series mostly up to 46.1 µM; activity change, negative = inhibition: at the top concentration
Method in brief: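 Readout is dual-colour luminescence: IkB-alpha-luciferase fusion (green) against unfused luciferase (red), plus their ratio, scaled between basal cells and 10 uM MG-132. OCI-Ly3 cells, 0.5% FBS IMDM, compound with doxycycline (80ng/ml solution), 4 hrs at 37C; curves fitted and classed.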
% is scaled to controls: 0 for no effect and ±100 for the full control effect.

Activity change, negative = inhibition, inactive:
COc1cc2c(cc1OC)-c1cc(NC3CCCCC3)nc(=O)n1CC2 -0.939%
O=C(COC(=O)Cc1ccc(-c2ccccc2)cc1)NCc1ccccc1 -0.0516%
COc1cccc(CSc2nc3ccccc3cc2C=O)c1 -1.56%
NC(=S)N/N=C/c1ncc(C(F)(F)F)cc1Cl -19%
CCOc1ccc(NC(=O)c2cc(OC)nc3ccccc23)cc1 -2.68%
COc1cccc(/C=C/C(=O)Nc2cc(S(=O)(=O)N3CCOCC3)ccc2OC)c1 -0.265%
COc1cc(C2C(C#N)=C(N)Oc3cc(N)ccc32)cc(OC)c1OC (centres undefined) -10%
Cc1cc(=O)oc2cc(OCC3CC(c4ccccc4Cl)=NO3)ccc12 (centres undefined) -1.99%
CNC(=S)N/N=C/c1ccco1 -0.913%
CNC(=S)N/N=C(\C)c1ccc(Cl)c(Cl)c1 0.0372%
COc1cccc(-c2nnc(SCC(=O)Nc3cc(C)on3)o2)c1 -1.71%
COc1ccc(/C=C/C(=O)Nc2cc(S(=O)(=O)N3CCOCC3)ccc2OC)cc1 -1.83%
COc1ccccc1CNS(=O)(=O)c1ccc(-c2cnc(C3CC3)o2)cc1 -3.8%
Nc1cc(=O)[nH]c(SCC(=O)Nc2cc(Cl)cc(Cl)c2)n1 -4.6%
C[C@]12C=CC(=O)C=C1CC[C@@H]1[C@@H]2[C@@H](O)C[C@@]2(C)[C@H]1CC[C@]2(O)C(=O)COC(=O)CCC(=O)O -1.59%
COc1ccc(/C=N\NC(=O)c2c(C)nc3ccc(Br)cn23)cc1 -1.89%
CC(=O)[C@H]1CC[C@H]2[C@@H]3C[C@H](C)C4=CC(=O)CC[C@]4(C)[C@H]3[C@@H](O)C[C@]12C -0.785%
CCC(=O)Nc1nonc1-c1nc2ccccc2n1Cc1cccc2ccccc12 -2.61%
Cc1ccc(Oc2ccc(-c3nc(N)nc(N)n3)cc2)cc1C -2.22%
C=CCn1c(SCC(=O)Nc2cccc(S(N)(=O)=O)c2)nc2sc(C)c(C)c2c1=O -0.698%
Cc1cccc(NS(=O)(=O)c2ccc(C3CCCCC3)cc2)n1 -1.61%
CCOc1cc(C(=O)N(C)CC(=O)Nc2cccc3ccccc23)ccc1OC -0.595%
CNC(=S)N/N=C(\C)c1ccc2c(c1)OCCO2 -0.452%
Cc1ccc(C#N)c(SCc2ccccc2[N+](=O)[O-])n1 -0.695%
CC(NC(=O)c1ccc(S(=O)(=O)NCc2ccco2)cc1)c1ccc(F)cc1 (centres undefined) -0.364%
Cn1c(=O)n(Cc2ccccc2Cl)c2ccccc21 -0.537%
COc1ccccc1NC(=O)Cn1nnc(C(=O)NCc2cccs2)c1N -0.743%
COC(=O)C1=CN(Cc2ccc(OC)c(OC)c2)C=C(C(=O)OC)C1c1cccc(O)c1 -0.462%
Cc1ccc(N2C(=O)c3cccc4c(N)ccc(c34)C2=O)c2cccnc12 -1.08%
CCOc1cc(/C=C(/C#N)C(=O)Nc2ccc(O)cc2)cc(Br)c1O -11.9%
NC(=O)c1c(NC(=O)CSc2nc(N)cc(=O)[nH]2)sc2c1CCCC2 -11.2%
O=C(Cc1ccc(-n2c(=O)c3ccccc3n(Cc3ccccc3Cl)c2=O)cc1)NCC1CCCO1 (centres undefined) -1.83%
O=C(COc1ccc(Oc2ccccc2)cc1)NCc1cn2ccccc2n1 -1.45%
COc1ccc(/C(C)=N/Nc2ncc(Cl)cc2Cl)c(O)c1 -0.146%
COc1ccc(/C=N/NC(=O)c2[nH]nc3c2CCc2ccccc2-3)cc1OC -10%
Cc1ccc(S(=O)(=O)N2CCN(C(=O)CSc3n[nH]c(N)n3)CC2)c(C)c1 -0.591%
CCC(C)N(C(=O)COC(=O)c1cc([N+](=O)[O-])ccc1N1CCOCC1)C1CCS(=O)(=O)C1 (centres undefined) 0.0699%
N#CC1=C(S)N(c2ccc(F)cc2)C(c2ccco2)NC1=O (centres undefined) -0.842%
Cc1ccc(NS(=O)(=O)c2ccc(-c3cnc(C4CC4)o3)cc2)c(C)c1 -13.5%
Cc1cc(NC2CCCCC2)nc2ccccc12 -0.117%
CCOc1ccc(Nc2cc(C)nc(-n3nc(C)cc3C)n2)cc1 -3.94%
CCOc1ccccc1C1C2=C(COC2=O)Nc2cc3c(cc21)OCO3 (centres undefined) -5.31%
CCCCC[C@H](O)/C=C/[C@@H]1[C@@H](CCCCCCC(=O)O)[C@@H](O)C[C@H]1O -1.13%
S=c1[nH]cnc2sc(-c3ccccc3)cc12 -0.433%
Cc1ccc(CSc2nc3ccccc3cc2C=O)cc1 1.14%
COc1ccc(C2CC(=O)Nc3cc(OC)c(OC)cc32)cc1Br (centres undefined) -1.31%
COc1ccc(S(N)(=O)=O)cc1C(=O)OCCCOC(=O)c1cc(S(N)(=O)=O)ccc1OC 0.425%
O=C(Oc1c(CN2CCOCC2)cc(Cl)c2cccnc12)c1ccccc1F -7.82%
COc1ccc(-c2ccc(CCC(=O)O)n2-c2ccccc2OC)cc1 -0.144%
COc1ccc(/C=N\NC(=O)c2ccccc2F)cc1COc1ccc(F)cc1F -6.34%
CCN(CC)c1ccc(/C=N/N=C(N)N)c(O)c1 -1.23%
C#CCOCCOCCOCCNc1nc(N2CCN(C(=O)[C@H](C(C)C)n3cc(CCO)nn3)CC2)nc(N2CCN(C(=O)[C@H]([C@@H](C)CC)n3cc(CCCN=C(N)N)nn3)CC2)n1 -0.271%
Cc1cc(C)n(-c2nc3ccccc3c(=O)n2OCC#N)n1 27.8%
FC(F)(F)c1nnc2ccc(Cl)nn12 0.0223%
Cc1csc(NC(=S)Nc2cccc(Cl)c2)n1 37.2%
CC[C@]1(O)C[C@@H]2CN(CCc3c([nH]c4ccccc34)[C@@](C(=O)OC)(c3cc4c(cc3OC)N(C)[C@H]3[C@@](O)(C(=O)OC)[C@H](OC(C)=O)[C@]5(CC)C=CCN6CC[C@]43[C@@H]65)C2)C1 -5.15%
CCOC(=O)Nc1ccc2nc(N3CCCCCC3)sc2c1 0.164%
COc1cccc(Nc2sc(C(=O)c3ccc(Cl)cc3)c(N)c2C(=O)NCc2ccc(C)cc2)c1 -1.56%
CCN(c1ccccc1)S(=O)(=O)c1ccc(C(=O)NNC(=O)c2ccccc2F)cc1 -0.453%
CN(C)c1ccc(-c2nn3c(-c4ccccc4Cl)nnc3s2)cc1 -2.19%
O=C(/C=C/c1cccs1)c1cc(Br)ccc1OC(=O)N1CCOCC1 -3.13%
CC(=O)c1ccsc1-c1c(C)cc2oc(=O)cc(-c3ccccc3)c2c1C -1.81%
COC(=O)c1[nH]c2c(c1C)C(=O)CC(c1ccccc1)C2 (centres undefined) -1.68%
Cc1noc(C)c1COc1ccc(C(=O)NCc2cccs2)cc1 -1.3%
COc1ccc(/C=C/C(=O)c2cc(F)ccc2OC(=O)c2ccc(OC)c(OC)c2)cc1OC -5.26%
CCc1ccc(CCC(=O)Nc2ncc(Cc3ccccc3Cl)s2)o1 -0.724%
CCCNS(=O)(=O)c1cccc(C(=O)OCc2cc(=O)oc3cc(OC)ccc23)c1 -16.4%
Cc1ccc(NC(=O)c2ccco2)c([N+](=O)[O-])c1 0.0255%
Nc1ccc(C(=O)n2c3ccccc3c3ccccc32)cc1 -4.18%
COc1ccc(S(=O)(=O)Nc2cc3c(C(C)=O)c(C)oc3c3ccccc23)cc1 -4.89%
COc1ccc(-c2c/c(=N\c3nc(-c4ccccc4)c(C)s3)c3ccccc3o2)cc1O -2.11%
COc1ccc(C)cc1NS(=O)(=O)c1ccc(-c2cnc(C3CC3)o2)cc1 -3.37%
COc1ccc(OC)c(C(=O)COC(=O)c2[nH]c(C)c(C(C)=O)c2C)c1 -2.83%
Cc1ccc2[nH]c(C(=O)NN=C3CCCCC3)c(-c3ccccc3)c2c1 -1.32%
COc1ccc(/C=N/NC(=O)c2[nH]c3ccc(Br)cc3c2-c2ccccc2)cc1 -4.11%
Cc1cnn(CCC(=O)NNC(=S)NCC(C)C)c1 -0.0233%
CCCn1nc(Oc2nc(N(C)C)nc(N(C)C)n2)ccc1=O -1.24%
CCOCCOC(=O)c1[nH]c2c(c1C)C(=O)CC(c1cccs1)C2 (centres undefined) -0.135%
CC1CCCN(c2ccc([N+](=O)[O-])cc2C(=O)c2ccccc2)C1 (centres undefined) -3.9%
COc1ccccc1CNC(=O)CSc1ccc(C)cc1 -0.623%
COc1ccc(C(=O)n2c(-c3ccco3)nc3ccccc32)cc1 -2.89%
COc1cc(OC)c2c(-c3cccc(-c4ccc(O)cc4)c3)cc(=O)oc2c1 2.26%
Cn1c(=O)n(Cc2ccccc2Br)c2ccccc21 -0.348%
O=C(Nc1nc2ccc(F)cc2s1)c1ccccn1 14.8%
COc1cc(C(=O)N/N=C(\C)c2ccc3c(c2)OCO3)cc(OC)c1OC -2.99%
O=C(COc1ccccc1-c1ccccc1)NN=C1CCCC1 -0.665%
CSc1nc(N(C)NC(=O)c2ccc(Cl)cc2)c2ccccc2n1 -2.95%
Cc1ccc(COC(=O)c2cc([N+](=O)[O-])ccc2N2CCOCC2)cc1 -1.34%
Cc1ccccc1NC(=S)c1ccc2ccccc2n1 -1.45%
CCOc1ccc(N(CC(=O)Nc2ccccc2OC)S(=O)(=O)c2ccccc2)cc1 -3.72%
COc1ccc(NS(=O)(=O)c2cc(NC(=O)CNC(=O)c3cccc(OC)c3)ccc2C)cc1 -3.48%
CCOc1ccc(C(=O)c2cc([N+](=O)[O-])ccc2N2CCOCC2)cc1 -3.09%
O=C(NN=C1CCCC1)c1[nH]c2ccc(Cl)cc2c1-c1ccccc1 -2.63%
COc1cc2c(c(OC)c1OC)-c1ccc(OC)c(=O)cc1[C@@H](NC(C)=O)CC2 -2.3%
ClC(Cl)(Cl)c1nc2ccccc2n2nncc12 18%
CCOC(=O)N1CCC(NC(=O)c2ccc3c(c2)N=C(C)c2c(C)ccc(C)c2S3)CC1 -7.89%
O=[N+]([O-])c1cc(O)c2ncccc2c1 -2.41%
O=C(Nc1ccc([N+](=O)[O-])cc1)Nc1ccon1 -2.62%
CC(C)(C)NC(=S)N/N=C/c1cccnc1 -0.0928%
COc1cc(C(c2sc3nc(C)nn3c2O)N2CCN(c3ccccc3)CC2)cc(OC)c1OC (centres undefined) -0.839%
COc1ccc(Nc2cc3n(c(=O)n2)CCc2cc(OC)c(OC)cc2-3)c(C)c1 -1.29%
COc1cc(C(=O)Nc2ccc(C)cc2)c2ccccc2n1 -1.4%
CCOC(=O)c1ccccc1NS(=O)(=O)c1ccc(OCC)cc1 -2%
CCCN1C(=O)C(=O)c2cc(Cl)ccc21 -8.1%
